Data reported in the supplement of paper PMC3334620.
The full ranking holds about 33,000 sequences; the median of “E-score (-0.5 to 0.5)” is about -0.054, and the highest 2% start at about 0.39. Some of the results follow.

molecular target: Ylr278c (UniProt Q05854); assay: PBM E-score (8-mer binding enrichment) (E-score (-0.5 to 0.5)); higher = stronger / more preferred TF binding; most listed sequences are background and not binding sites; settings: protein concentration: 200 nM; construct: GST-DNA-binding domain
Description: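 Universal 'all 10-mer' protein binding microarrays (Agilent AMADID 015681) probed with GST-tagged S. cerevisiae TFs (full-length or DBD) made by in vitro transcription/translation (PURExpress), about 100-200 nM. Bound TF was detected with fluorescent anti-GST. Each ungapped 8-mer (which stands for itself and its reverse complement) is scored by the PBM enrichment score (E-score), a modified Wilcoxon-Mann-Whitney statistic from -0.5 to +0.5, computed with the Universal PBM Analysis Suite. Scale: above 0.35 generally sequence-specific binding.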

Sequence	PBM E-score
TAGGCAAA	-0.158
AAAGGCGG	0.176
ACATTTAA	0.0447
ATGTACGC	-0.288
GCCCGCAC	0.282
ACGATATG	-0.0566
GCACGGTA	-0.0539
CTGACTCC	0.143
CTCTTAAC	-0.21
ACGAGAAC	-0.0656
TATCAAGA	-0.135
AACGCTTG	-0.0781
ACCTGATC	-0.177
TGTATAAA	-0.0868
AAACCCTC	-0.0128
ACAGAACC	-0.16
TACTATAA	-0.12
CAGCAACC	-0.0809
AACGATGA	0.0509
GTTTACGA	-0.238
ACCCATAT	-0.17
ACTCGGAG	0.428
CCGCTCCG	0.444
CAGGCGCG	-0.0797
CGAGAGCG	0.126

Sequence	PBM E-score
AATGCGCG	0.313
GTGGTAGA	-0.156
CTCGCGCA	0.0619
ACACGCCT	-0.257
ATCTGCTA	-0.318
ACGTTGAC	-0.18
CAAGGCGG	0.135
AGAAGCTA	0.0166
ATACCCAA	-0.0949
AATGGCAC	-0.0289
GTCCCCAA	-0.0362
GCAGGTAA	0.116
CCGTCGAC	0.0989
GCTGATAC	0.0102
CCCCAGGA	-0.196
AATGACCG	0.218
ACCGGTGG	0.192
CCACAGAC	-0.243
GGACTCAC	0.00149
CGACCCCC	-0.0599
GAGGTCAC	-0.0534
ACGAAAGC	-0.149
ATGAACCG	-0.127
ACCTTAAG	-0.111
CCCCGAAA	0.368

Sequence	PBM E-score
AATCGTCG	0.0365
TAATCACA	-0.259
ATGCCCAA	-0.226
ACGCGATC	0.0734
CGAGGACA	0.0478
AGTCTGAT	-0.265
GAGACACC	-0.068
GGCTTCAC	0.0279
GCCGATGA	0.298
CATATAGA	-0.161
ATCTGGTG	-0.0676
CTAAACGA	0.0243
CTTCTCGA	-0.194
AAGTGTGT	-0.353
GGAAAGGA	0.185
GACCTAAC	0.0677
AACGCCGG	0.424
CGTCTATA	0.0143
ACAGTAGT	-0.234
GCGTAGAA	0.0122
CACGACCC	-0.0645
ACTGTGTG	-0.101
AACCTAGT	-0.00542
ATTTTTAC	-0.121
ATGTTGTA	-0.152

Sequence	PBM E-score
AGCTGCTG	-0.129
CCGTCAGA	0.0483
CCGCCGGC	0.41
CTTTCCCC	0.145
ACTGAAAC	0.076
ACACAAAA	0.0216
CACACTTA	-0.0264
GAGGAGTA	0.0495
GCAACGTA	-0.238
AGTGGCTG	0.00045
AGGCCTGA	-0.0412
ATCGAATG	-0.0617
CTATGTAA	-0.188
CGATCCAA	-0.115
AGCACTAT	-0.279
CTAAAAGA	-0.283
AATAACGC	-0.111
ACAACATC	-0.0181
TATATTGA	0.0547
ATCCGATC	0.37
GCTTATCA	-0.178
AGTCTATC	-0.212
CCCTTAAG	-0.108
GGTGAACC	-0.0108
CTCGTGGC	-0.0535

Sequence	PBM E-score
CCCCGATA	0.35
AACGGCCT	0.0425
CCTAAGTA	-0.157
AGTTAGAA	0.0496
CCGGTGTA	0.365
ACTCGTAC	-0.127
GGCTAACA	-0.013
ATACCGAC	0.0682
CCAACTGG	-0.22
ATTAACTA	-0.19
ATATACCA	-0.257
ATTAATGG	0.0287
GCTGAGTA	-0.225
TAGGTGGA	-0.229
CCATATAG	-0.205
GGATCATA	0.0161
AAATATAC	-0.0358
CGACCAAA	0.028
CGTATGGA	-0.0318
AACTAGTT	-0.0355
GTTCTCCA	-0.00304
CATAAGAG	-0.125
AGAAGCTC	-0.00659
AACGGTGG	-0.155
AGAGAGGG	-0.216

Sequence	PBM E-score
CATGCAGC	-0.0763
GGAGTGCC	0.26
AAAGCTGC	-0.0425
ACCGGGCA	0.279
ATGCCTCG	-0.118
ATCTTCCC	0.143
CCAAGATC	-0.12
GTCAATCA	-0.24
AAATGTCT	0.00237
AATGAGCC	-0.1
GCCCGACA	0.216
CGCGTCCG	0.27
ACGATGAC	0.00399
AACCGATG	0.0999
ACTGCACG	-0.0184
CGCTCGTC	-0.0988
ACGTTTCC	-0.0269
CGTCCGCA	0.246
GATGATTA	0.0598
CGCTCCAA	-0.0664
GTTCTAAA	-0.0627
CGGAGTTA	0.493
TCGAGGAA	-0.246
CCCCGAGA	0.272
GCCTACAA	0.046

Sequence	PBM E-score
AACACTTG	-0.16
AAACCGTC	-0.0126
ACGTAAAC	-0.133
TACTTCGA	-0.0676
AATGCTAT	-0.234
GGGCTAGA	0.109
ACTCCTCC	0.229
TCGAAAAA	0.023
AGGCATGA	-0.259
AAGCCTCA	-0.0675
TCTCCTAA	-0.144
GGTTCCAA	0.188
ACAACTAG	-0.0111
AACAGCGC	-0.137
GGGATAAC	0.163
AATAGGCT	0.0282
AAGACCCG	0.0763
CAAATGCC	0.187
CCGAGCGA	0.279
CAGCGCCC	-0.099
CTAATTGC	0.0847
GTCGGCAA	0.184
CCTGTTGC	-0.0124
GGGTCTCA	-0.12
AGCTGCAA	-0.122

Sequence	PBM E-score
ACCGACTA	0.108
CGATTTGA	-0.059
GACCCCGA	0.336
GGGTGGAC	-0.0268
GAACTCCC	0.218
GGGCCTCA	0.0262
GGAGCTTA	0.098
ACTTTATC	0.0391
CAAACGCC	0.203
CAGACGAC	-0.29
ACGTTAGA	-0.175
AAGTCACA	-0.146
CGCCGTTA	0.173
GGTTCCCA	-0.134
GGAATGAC	0.0815
GTCACGAC	-0.124
ATAACCAC	-0.116
CCCAACAG	-0.331
ATTGGAGC	0.00626
AAATCAGT	0.0231
GAACAGGA	-0.0691
ATGTCTAA	-0.288
AGTGATAC	-0.117
CCTCCACA	-0.185
CAAGTTGC	0.111

Sequence	PBM E-score
GTGCCTTA	-0.129
AGTACCTC	-0.223
GTTTAACA	-0.121
GGCTTCCC	0.00141
AGGTCGAT	0.121
GATACGAC	-0.163
ACTCTTAG	-0.291
GATCTCCA	0.0507
ATCCGCCA	0.196
GATATCGA	-0.0661
GAACCAAC	-0.11
ACGTTCAT	-0.195
AAGAATCT	-0.128
GACACCCA	-0.146
GGGCCAGA	0.0393
AAATACAT	-0.199
ACAACTGC	-0.159
AGGGACCT	-0.202
ATGATCTG	-0.16
CAACATCC	0.143
CGACAAGC	-0.0245
CGCTGTGC	0.105
CCGGGAGC	0.228
CCAAAGTA	-0.0903
AGGCTGAG	-0.0804

Sequence	PBM E-score
CAAACCAC	-0.0918
ACATCAAT	-0.14
GAAGTTAA	-0.172
AATAACAC	0.122
GACCAAGC	-0.1
AAACCCAG	-0.223
ACATCAAC	0.05
CCACCAAG	-0.0986
GGACAAAC	0.0317
ATCAATGC	0.00566
AACATCCA	-0.0947
GAAAAGGA	-0.021
ATAGCCAG	-0.226
CCTGATCG	-0.0211
TCCTGCCA	-0.0528
GAGCTAAA	-0.104
AAATTGAT	0.148
ATTTGTGA	-0.111
ATGGAAAA	0.106
ACCTCCAA	-0.209
ACGGGTCA	-0.211
AGCCTGCG	-0.0735
GTCCCCAC	-0.142
GAGTGGTA	-0.205
ATGTCAAT	-0.012

Sequence	PBM E-score
AATCGAAC	-0.164
ATTTGGGA	-0.0715
ACGTGCCT	-0.156
ATCTTCGG	0.303
GTTACAAC	-0.123
AAACTAAT	0.105
ATCCCATC	-0.16
GACTAGAA	0.0394
CTTGGGTA	-0.244
ATCGGCGG	0.42
CGGACCCC	0.365
ACATCAGC	-0.0321
TATAGGAA	-0.192
GACTCACC	-0.121
GCCACTCA	-0.161
CTTCGAAC	-0.027
GTATCAGA	-0.0343
GGACTGCA	-0.0459
CAGTTGTC	-0.147
AGGATGGA	0.102
AGTACCCC	0.185
ATTGCAAT	0.0974
ATCGACAA	-0.0327
GGATAACA	0.0565
ACGTTCAA	-0.137

Sequence	PBM E-score
AGCATGTC	-0.119
ATATTAGG	-0.183
ATCAAAGA	-0.247
GATTCGGC	0.318
CCCTAGAG	-0.213
GCCTATCC	-0.00228
TAACGACA	-0.00904
GTAGCTCA	-0.043
CAGAGAGA	-0.24
ATAACTGG	-0.0346
GAAGGAGA	-0.0916
AAATCCAA	-0.0435
GGAGAACA	0.25
CAAACCTG	-0.0745
CTAGCAAG	-0.253
ACAATCCG	0.242
GGTAAAAC	0.0161
ATGGAGGA	-0.118
CTGAGCGA	-0.227
AGGGCGCA	-0.196
GAGGCCTA	-0.117
CACGTATC	-0.15
CAGGGTCA	-0.0682
CAAGGTGG	0.0341
CACAACGA	0.121

Sequence	PBM E-score
CCTTGTGA	-0.0667
CGCTGCCC	0.0603
CGGTTTCA	0.186
AGCTAAGG	-0.135
ACCACCAC	-0.0464
AGAAATTC	0.0638
AAATCGCA	0.0305
CAGTGCCG	0.235
GCAGATTA	0.0757
AATTATTC	0.128
CGGGGTAG	0.277
AAAGCTTT	0.154
AAAACAGT	0.0976
ACAGCCCG	0.0886
ATAGTCTC	-0.0855
ACTCAGAC	-0.249
AGTACGGA	0.303
AGTCTGAA	-0.292
ACGCCTTG	-0.162
AGAGAGAA	-0.242
AAAAGGCC	0.0509
CTGATGGA	-0.125
CAATAAAA	-0.151
CCGGCTGC	0.309
AATCTCTG	-0.198

Sequence	PBM E-score
AGAGGAAA	0.0225
CTGTAGAA	-0.131
GAGTCAGA	-0.00395
AACTCCGA	0.496
ACTAACAG	-0.116
CCAATTAA	-0.0658
AAAAACGG	0.201
AGTGTTAA	-0.0911
CCGTTATA	0.0394
ACACAGAG	-0.157
AGGACAAT	-0.0381
ATGCATTA	-0.0272
GATAGCAA	0.0259
ACTGAGCC	0.00565
ACAACGCG	0.118
GAGTGTAA	-0.188
AGGGAACC	-0.0743
CGATCCTA	-0.0225
GAGCTCGC	0.158
